{"source": "the supplement of paper PMC8728848", "assay_in_all_cases": "glycan array binding signal (z-score within array); higher = stronger binding", "details_in_all_cases": "glycan notation: IUPAC condensed, linker removed", "key": {"Fuc(a1-2)[Gal(a1-3)]Gal": {"target": "Fuc(a1-2)[Gal(a1-3)]Gal", "summary_of_the_method": "(§1)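 From the Consortium for Functional Glycomics database, 3228 arrays were curated, keeping only those whose protein sequence was available. Binding is given as a within-array Z-score averaged across arrays sharing a protein sequence and across linkers. Negative Z-scores can be read as non-binding.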"}, "[1]": {"target": "Fuc(a1-2)[Gal(a1-3)]Gal(b1-3)GlcNAc", "summary_of_the_method": "as §1"}, "[2]": {"target": "Fuc(a1-2)[Gal(a1-3)]Gal(b1-3)GlcNAc(b1-2)Man(a1-3)[Fuc(a1-2)[Gal(a1-3)]Gal(b1-3)GlcNAc(b1-2)Man(a1-6)]Man(b1-4)GlcNAc(b1-4)GlcNAc", "summary_of_the_method": "as §1"}, "[3]": {"target": "Fuc(a1-2)[Gal(a1-3)]Gal(b1-4)Glc", "summary_of_the_method": "as §1"}, "[4]": {"target": "Fuc(a1-2)[Gal(a1-3)]Gal(b1-4)GlcNAc", "summary_of_the_method": "as §1"}, "[5]": {"target": "Fuc(a1-2)[Gal(a1-3)]Gal(b1-4)GlcNAc(b1-2)Man(a1-3)[Fuc(a1-2)[Gal(a1-3)]Gal(b1-4)GlcNAc(b1-2)Man(a1-6)]Man(b1-4)GlcNAc(b1-4)GlcNAc", "summary_of_the_method": "as §1"}, "[6]": {"target": "Fuc(a1-2)[Gal(a1-3)]Gal(b1-4)[Fuc(a1-3)]GlcNAc", "summary_of_the_method": "as §1"}, "[7]": {"target": "Fuc(a1-2)[Gal(a1-4)]Gal(b1-4)GlcNAc", "summary_of_the_method": "as §1"}, "[8]": {"target": "Fuc(a1-2)[GalNAc(a1-3)]Gal", "summary_of_the_method": "as §1"}, "[9]": {"target": "Fuc(a1-2)[GalNAc(a1-3)]Gal(b1-3)GalNAc(a1-3)[Fuc(a1-2)]Gal(b1-4)GlcNAc", "summary_of_the_method": "as §1"}, "[10]": {"target": "Fuc(a1-2)[GalNAc(a1-3)]Gal(b1-3)GlcNAc", "summary_of_the_method": "as §1"}, "[11]": {"target": "Fuc(a1-2)[GalNAc(a1-3)]Gal(b1-3)GlcNAc(b1-2)Man(a1-3)[Fuc(a1-2)[GalNAc(a1-3)]Gal(b1-3)GlcNAc(b1-2)Man(a1-6)]Man(b1-4)GlcNAc(b1-4)GlcNAc", "summary_of_the_method": "as §1"}, "[12]": {"target": "Fuc(a1-2)[GalNAc(a1-3)]Gal(b1-4)Glc", "summary_of_the_method": "as §1"}, "[13]": {"target": "Fuc(a1-2)[GalNAc(a1-3)]Gal(b1-4)GlcNAc", "summary_of_the_method": "as §1"}, "[14]": {"target": "Fuc(a1-2)[GalNAc(a1-3)]Gal(b1-4)GlcNAc(b1-2)Man(a1-3)[Fuc(a1-2)[GalNAc(a1-3)]Gal(b1-4)GlcNAc(b1-2)Man(a1-6)]Man(b1-4)GlcNAc(b1-4)GlcNAc", "summary_of_the_method": "as §1"}, "[15]": {"target": "Fuc(a1-2)[GalNAc(a1-3)]Gal(b1-4)GlcNAc(b1-3)Gal(b1-4)GlcNAc", "summary_of_the_method": "as §1"}, "[16]": {"target": "Fuc(a1-2)[GalNAc(a1-3)]Gal(b1-4)GlcNAc(b1-3)Gal(b1-4)GlcNAc(b1-3)Gal(b1-4)GlcNAc", "summary_of_the_method": "as §1"}, "[17]": {"target": "Fuc(a1-2)[GalNAc(a1-3)]Gal(b1-4)[Fuc(a1-3)]GlcNAc", "summary_of_the_method": "as §1"}, "[18]": {"target": "Fuc(a1-2)[GalNAc(a1-4)]Gal(b1-4)GlcNAc", "summary_of_the_method": "as §1"}, "[19]": {"target": "Fuc(a1-2)[GalNAc(b1-3)]Gal", "summary_of_the_method": "as §1"}, "Fuc(a1-3)GlcNAc": {"target": "Fuc(a1-3)GlcNAc", "summary_of_the_method": "as §1"}, "[20]": {"target": "Fuc(a1-3)[Gal(b1-4)]Glc6S", "summary_of_the_method": "as §1"}, "[21]": {"target": "Fuc(a1-3)[Gal(b1-4)]GlcNAc", "summary_of_the_method": "as §1"}, "[22]": {"target": "Fuc(a1-3)[Gal(b1-4)]GlcNAc(b1-2)Man(a1-3)[Fuc(a1-3)[Gal(b1-4)]GlcNAc(b1-2)Man(a1-6)]Man(b1-4)GlcNAc(b1-4)GlcNAc", "summary_of_the_method": "as §1"}, "[23]": {"target": "Fuc(a1-3)[Gal(b1-4)]GlcNAc(b1-2)Man(a1-6)[Gal(b1-4)GlcNAc(b1-2)Man(a1-3)]Man(b1-4)GlcNAc(b1-4)GlcNAc", "summary_of_the_method": "as §1"}, "[24]": {"target": "Fuc(a1-3)[Gal(b1-4)]GlcNAc(b1-3)Gal(b1-3)[Fuc(a1-4)]GlcNAc", "summary_of_the_method": "as §1"}, "[25]": {"target": "Fuc(a1-3)[Gal(b1-4)]GlcNAc(b1-3)GalNAc", "summary_of_the_method": "as §1"}, "[26]": {"target": "Fuc(a1-3)[Gal(b1-4)]GlcNAc(b1-4)Gal(b1-4)[Fuc(a1-3)]GlcNAc", "summary_of_the_method": "as §1"}, "[27]": {"target": "Fuc(a1-3)[Gal(b1-4)]GlcNAc(b1-4)Gal(b1-4)[Fuc(a1-3)]GlcNAc(b1-4)Gal(b1-4)[Fuc(a1-3)]GlcNAc", "summary_of_the_method": "as §1"}, "[28]": {"target": "Fuc(a1-3)[Gal(b1-4)]GlcNAc(b1-6)[Gal(b1-3)GlcNAc(b1-3)]Gal(b1-4)Glc", "summary_of_the_method": "as §1"}}, "note": "The list shows a part of the results.", "data": [{"binder": "Mincle (Homo sapiens), Q9ULY5 (protein) MNSSKSSETQCTERGCFSSQMFLWTVAGIPILFLSACFITRCVVTFRIFQTCDEKKFQLPENFTELSCYNYGSGSVKNCCPLNWEYFQSSCYFFSTDTISWALSLKNCSAMGAHLVVINSQEEQEFLSYKKPKMREFFIGLSDQVVEGQWQWVDGTPLTKSLSFWDVGEPNNIATLEDCATMRDSSNPRQNWNDVTCFLNYFRICEMVGINPLNKGKSL", "values": [{"measurement": "glycan array binding signal (z-score)", "setting": "Fuc(a1-2)[Gal(a1-3)]Gal", "value": -0.136}, {"measurement": "glycan array binding signal (z-score)", "setting": "[1]", "value": -0.318}, {"measurement": "glycan array binding signal (z-score)", "setting": "[2]", "value": -0.113}, {"measurement": "glycan array binding signal (z-score)", "setting": "[3]", "value": -0.4}, {"measurement": "glycan array binding signal (z-score)", "setting": "[4]", "value": -0.111}, {"measurement": "glycan array binding signal (z-score)", "setting": "[5]", "value": -0.165}, {"measurement": "glycan array binding signal (z-score)", "setting": "[6]", "value": -0.371}, {"measurement": "glycan array binding signal (z-score)", "setting": "[7]", "value": -0.654}, {"measurement": "glycan array binding signal (z-score)", "setting": "[8]", "value": -0.296}, {"measurement": "glycan array binding signal (z-score)", "setting": "[9]", "value": -0.46}, {"measurement": "glycan array binding signal (z-score)", "setting": "[10]", "value": -0.452}, {"measurement": "glycan array binding signal (z-score)", "setting": "[11]", "value": 0.062}, {"measurement": "glycan array binding signal (z-score)", "setting": "[12]", "value": -0.346}, {"measurement": "glycan array binding signal (z-score)", "setting": "[13]", "value": -0.289}, {"measurement": "glycan array binding signal (z-score)", "setting": "[14]", "value": 1.11}, {"measurement": "glycan array binding signal (z-score)", "setting": "[15]", "value": -0.371}, {"measurement": "glycan array binding signal (z-score)", "setting": "[16]", "value": -0.14}, {"measurement": "glycan array binding signal (z-score)", "setting": "[17]", "value": -0.227}, {"measurement": "glycan array binding signal (z-score)", "setting": "[18]", "value": 0.938}, {"measurement": "glycan array binding signal (z-score)", "setting": "[19]", "value": -0.199}, {"measurement": "glycan array binding signal (z-score)", "setting": "Fuc(a1-3)GlcNAc", "value": 0.419}, {"measurement": "glycan array binding signal (z-score)", "setting": "[20]", "value": -0.224}, {"measurement": "glycan array binding signal (z-score)", "setting": "[21]", "value": -0.288}, {"measurement": "glycan array binding signal (z-score)", "setting": "[22]", "value": 0.916}, {"measurement": "glycan array binding signal (z-score)", "setting": "[23]", "value": 5.4}, {"measurement": "glycan array binding signal (z-score)", "setting": "[24]", "value": -0.103}, {"measurement": "glycan array binding signal (z-score)", "setting": "[25]", "value": 0.293}, {"measurement": "glycan array binding signal (z-score)", "setting": "[26]", "value": -0.036}, {"measurement": "glycan array binding signal (z-score)", "setting": "[27]", "value": -0.226}, {"measurement": "glycan array binding signal (z-score)", "setting": "[28]", "value": 0.022}]}]}
